PubChem BioAssay AID1259400 (National Center for Advancing Translational Sciences (NCATS), 2018)
Among all 350,000 compounds or so, about 2,100 (0.6%) were called active. This list was built around the results that the source calls inconclusive (neither active nor inactive); the mix of calls is not that of the screen.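 The calls were made as follows: active = activity change of -60% or lower, but not beyond a set lower limit; inconclusive = change between -60% and -40%, or beyond the set limit; inactive = change above -40%.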

Biological target: Relaxin receptor 1 (Homo sapiens) (UniProt Q9HBX9)
Test: qHTS Assay for Antagonists of the Relaxin Receptor RXFP1
Details: HEK293-RXFP1, relaxin-stimulated cAMP HTRF, 30 min; at 57.5 µM; hits give low values
% is scaled to controls: 0 for no effect and ±100 for the full control effect.

Chain of UniProt Q9HBX9 (Q9HBX9 whole entry, looked up): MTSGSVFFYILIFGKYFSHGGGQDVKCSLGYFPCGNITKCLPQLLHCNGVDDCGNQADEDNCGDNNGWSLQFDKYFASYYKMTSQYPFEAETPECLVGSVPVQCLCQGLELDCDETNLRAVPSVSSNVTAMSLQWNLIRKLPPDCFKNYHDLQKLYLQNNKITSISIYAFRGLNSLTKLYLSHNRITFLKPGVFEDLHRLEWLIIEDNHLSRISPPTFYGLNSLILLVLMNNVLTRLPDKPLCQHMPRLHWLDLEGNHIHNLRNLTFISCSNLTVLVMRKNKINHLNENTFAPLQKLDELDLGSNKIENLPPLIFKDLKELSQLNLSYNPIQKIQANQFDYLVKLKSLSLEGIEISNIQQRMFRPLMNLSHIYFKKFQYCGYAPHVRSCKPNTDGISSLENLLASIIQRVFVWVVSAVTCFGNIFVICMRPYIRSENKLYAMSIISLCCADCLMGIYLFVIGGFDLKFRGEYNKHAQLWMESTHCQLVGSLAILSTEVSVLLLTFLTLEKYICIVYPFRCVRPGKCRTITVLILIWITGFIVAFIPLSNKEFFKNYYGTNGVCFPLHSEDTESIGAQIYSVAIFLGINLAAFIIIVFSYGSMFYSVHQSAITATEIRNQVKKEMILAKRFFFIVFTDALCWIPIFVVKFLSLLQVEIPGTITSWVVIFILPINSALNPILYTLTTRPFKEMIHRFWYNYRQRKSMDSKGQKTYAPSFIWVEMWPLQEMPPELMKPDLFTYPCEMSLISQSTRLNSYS

Compound | activity change, negative = inhibition
Cn1c(Sc2ccc(C(=O)O)cc2[N+](=O)[O-])nnc1-c1ccccc1 | inconclusive: -49.3%
CC12CCC(C(=O)N(CSC(=S)N/N=C\c3ccccc3Cl)C1=O)C2(C)C (stereo not given) | active: -64.7%
O=C(CN1CCN(S(=O)(=O)c2ccc(Br)cc2)CC1)Nc1ccc(F)cc1 | inactive: -11.8%
CCOC(=O)NC(=S)Nc1ccc(C(C)(C)C)cc1 | inconclusive: -46.4%
COc1ccc2c(c1)[nH]c1c(N3CCSCC3)ncnc12 | inconclusive: -59.9%
COc1ccccc1NS(=O)(=O)c1cc(C(=O)NCC(C)(C)N2CCOCC2)ccc1C | inconclusive: -44.4%
CC1C(c2ccc3c(c2)OCO3)c2cc3c(cc2OC1N1CCOCC1)OCO3 (stereo not given) | active: -72.9%
O=C(Nc1c(Br)cc2c(c1Br)Cc1cc([N+](=O)[O-])ccc1-2)C(Cl)Cl | inconclusive: -49.2%
NS(=O)(=O)c1ccc(CCNc2ncnc3c2cnn3-c2cccc(Cl)c2)cc1 | active: -84.4%
Cc1ccc([C@H]2N[C@]3(CCCN(Cc4ccc(C(F)(F)F)cc4)C3=O)[C@H]3C(=O)N(Cc4ccccc4)C(=O)[C@@H]23)cc1 | inactive: 11.3%
c1ccc2c(CCNc3ncnc4nc[nH]c34)cccc2c1 | inactive: -14.1%
COc1ccc(NC(=O)c2c(C)oc3ccc(O)c(CN4CCN(Cc5ccccc5)CC4)c23)cc1Cl | inconclusive: -40.5%
CC1=C/C(=N\OS(=O)(=O)c2ccccc2)C(C(C)C)=CC1=O | inconclusive: -52.5%
COc1nc(-c2ccccc2)nnc1-c1ccccc1 | inconclusive: -56.6%
Cc1cc(N2CCN(C)CC2)nc2ccc(NC(=O)Nc3cccc(Cl)c3)cc12 | inconclusive: -54.6%
Nn1c(SCC(=O)Nc2nnc(-c3ccccc3)o2)nnc1C1CC1 | inconclusive: -48.7%
COc1ccc(/C=N/NC(=O)Cc2ccc(Cl)cc2)cc1OC | inactive: -2.19%
Cc1cc(C(=O)CSc2nnc(-c3ccccc3)n2Cc2ccc3c(c2)OCO3)c(C)n1C | inactive: -3.97%
COc1cc(OC)c(-c2nn3c(-c4ccco4)nnc3s2)cc1OC | inactive: -1.38%
COc1cc(CNCc2ccccn2)ccc1OCc1ccc(Cl)cc1Cl | inconclusive: -41%
O=C(Nc1ccc2c(c1)OCCO2)c1cnc2ccccn2c1=O | inactive: 14.5%
CC(C)(C)C(=O)/C(=C/c1ccncc1)n1cncn1 | inconclusive: -44%
Cc1ccccc1Nc1sc(C(=O)Nc2cccc(Cl)c2)c(N)c1C(N)=O | inconclusive: -42.1%
COc1cccc(/C=C2\SC(=S)N(C(C)C(=O)NC3C=CS(=O)(=O)C3)C2=O)c1 (stereo not given) | inconclusive: -51.9%
CC(NC(=O)CN(c1cccc(C(F)(F)F)c1)S(C)(=O)=O)c1ccccc1 (stereo not given) | inactive: 5.53%
COC(=O)c1ccccc1-c1ccc(/C=N/Nc2nc(N3CCCC3)nc(N3CCCC3)n2)o1 | inconclusive: -44%
Cc1cc(CN2CCN(c3cccc(C)c3C)CC2)cs1 | inconclusive: -50%
Cc1nc(Sc2ccc(Cl)cc2)c(C#N)c(C)c1[N+](=O)[O-] | inconclusive: -55.9%

Compound | activity change, negative = inhibition
Cc1ccc(Cn2nnnc2CN2CCC(O)(c3ccc(F)cc3)CC2)cc1 | inconclusive: -40.9%
Cn1c2ccccc2c2nnc(SCC(=O)NC3CCCC3)nc21 | inactive: -8.06%
CCOC(=O)C1(Cc2cccc(F)c2)CCN(C(=O)C2CCCO2)CC1 (stereo not given) | inconclusive: -40.9%
COc1ccc(NC(=O)c2cc(-c3cccs3)on2)c(OC)c1 | inactive: -28.3%
Cc1cc(C)cc(-n2nnc(-c3nc(-c4ccccc4F)no3)c2C)c1 | inactive: -10.8%
Fc1ccc(CN2CCSCC2)cc1Br | inconclusive: -41.3%
CC(=O)N1CCN(c2ccc(Oc3ccc([N+](=O)[O-])c(C(F)(F)F)c3)cc2)CC1 | inconclusive: -47.1%
CC(C)NCC(O)COC1CCC(C(C)(C)C)CC1 (stereo not given) | inconclusive: -44.2%
Cc1cccc(Nc2c3c(nc4nncn24)CCC3)c1 | inactive: 2.88%
CC1CCN(c2nc(N(C)c3ccccc3)nc(N)c2[N+](=O)[O-])CC1 | inconclusive: -53.5%
COc1ccccc1/C=C/C(=O)c1ccccc1 | inactive: 4.64%
CCCCOc1ccc(C(=O)N(Cc2ccc(C(C)C)cc2)C2CCS(=O)(=O)C2)cc1 (stereo not given) | inconclusive: -48.1%
CC(=O)Nc1ccc(S(=O)(=O)N2CCC(Oc3ccc(-n4cnnn4)cc3)CC2)cc1 | inconclusive: -40.1%
CCC(C(=O)NC1CC1)n1nc(C)c2c(C)n(-c3ccc(C)cc3)nc2c1=O (stereo not given) | inconclusive: -41.6%
CCN(CC)c1ccc(/C=N/NC(=O)Cc2ccc(OC)c(OC)c2)cc1 | inconclusive: -44.4%
O=C(Oc1ccc(C(=S)N2CCCCC2)cc1)c1ccccc1 | inconclusive: -45.8%
Cc1[nH]c(C)c(S(=O)(=O)N2CCCCC2C)c1C(=O)N1CCCC1 (stereo not given) | inconclusive: -54.8%
CC(=O)Cc1nsc(NC(=O)c2ccc(-c3cc(C(F)(F)F)ccc3Cl)o2)n1 | inactive: 4.52%
CCOc1ccc(C(=O)Nc2ccccc2C(=O)O)cc1 | inconclusive: -42.4%
CC(=O)C(C(C)=O)c1c(Cl)c(O)c(O)c2c(C(=O)c3ccccc3)coc12 | inconclusive: -55%
CN(C)c1ccc(N/C=C/C(=O)c2ccccc2)cc1 | active: -110%
CCOC(=O)C1(Cc2cccc(F)c2)CCN(C(=O)C2CCOCC2)CC1 | inconclusive: -47.6%
CCCCC(=O)Nc1ccc(C(=O)NNC(=S)NC(=O)c2cccs2)cc1 | inactive: 12.4%
Cc1cc(C)c(S(=O)(=O)/N=C2/C=C(Sc3ncn[nH]3)C(=O)c3ccccc32)cc1C | inconclusive: -57.2%
COc1ccc(-c2nc(-c3ccccc3)c(-c3ccc(O)cc3)[nH]2)cc1 | active: -104%
Cc1[nH][nH]c(=O)c1C(c1ccc(Cl)cc1)c1c(C)[nH][nH]c1=O | active: -79.9%
CCCCC(=O)NC(c1ccc(Cl)cc1)c1ccc2cccnc2c1O (stereo not given) | inconclusive: -50.9%
